{"source": "PubChem BioAssay AID1347165", "about": "(National Center for Advancing Translational Sciences (NCATS), 2019)", "note": "Out of some 220,000 compounds screened, about 5,700 (2.6%) were called active. Inconclusive means that the source gave no clear call. Such entries were picked first, then a sample of the others. The call rests on the fitted dose curve; in most records, active means well fitted inhibition curve with a large enough effect; inconclusive means small, poorly fitted or top-dose-only effect; inactive means no such curve, though single readings can be large or run the other way. Potencies of inconclusive entries are doubtful fits and often do not repeat. Potency means the concentration at half of the fitted maximal effect; tags describe the fitted curve by direction and shape."}
{"molecular_target": "Lysine-specific demethylase 5B (Homo sapiens) (UniProt Q9UGL1)", "sequence (Q9UGL1 whole entry, looked up)": "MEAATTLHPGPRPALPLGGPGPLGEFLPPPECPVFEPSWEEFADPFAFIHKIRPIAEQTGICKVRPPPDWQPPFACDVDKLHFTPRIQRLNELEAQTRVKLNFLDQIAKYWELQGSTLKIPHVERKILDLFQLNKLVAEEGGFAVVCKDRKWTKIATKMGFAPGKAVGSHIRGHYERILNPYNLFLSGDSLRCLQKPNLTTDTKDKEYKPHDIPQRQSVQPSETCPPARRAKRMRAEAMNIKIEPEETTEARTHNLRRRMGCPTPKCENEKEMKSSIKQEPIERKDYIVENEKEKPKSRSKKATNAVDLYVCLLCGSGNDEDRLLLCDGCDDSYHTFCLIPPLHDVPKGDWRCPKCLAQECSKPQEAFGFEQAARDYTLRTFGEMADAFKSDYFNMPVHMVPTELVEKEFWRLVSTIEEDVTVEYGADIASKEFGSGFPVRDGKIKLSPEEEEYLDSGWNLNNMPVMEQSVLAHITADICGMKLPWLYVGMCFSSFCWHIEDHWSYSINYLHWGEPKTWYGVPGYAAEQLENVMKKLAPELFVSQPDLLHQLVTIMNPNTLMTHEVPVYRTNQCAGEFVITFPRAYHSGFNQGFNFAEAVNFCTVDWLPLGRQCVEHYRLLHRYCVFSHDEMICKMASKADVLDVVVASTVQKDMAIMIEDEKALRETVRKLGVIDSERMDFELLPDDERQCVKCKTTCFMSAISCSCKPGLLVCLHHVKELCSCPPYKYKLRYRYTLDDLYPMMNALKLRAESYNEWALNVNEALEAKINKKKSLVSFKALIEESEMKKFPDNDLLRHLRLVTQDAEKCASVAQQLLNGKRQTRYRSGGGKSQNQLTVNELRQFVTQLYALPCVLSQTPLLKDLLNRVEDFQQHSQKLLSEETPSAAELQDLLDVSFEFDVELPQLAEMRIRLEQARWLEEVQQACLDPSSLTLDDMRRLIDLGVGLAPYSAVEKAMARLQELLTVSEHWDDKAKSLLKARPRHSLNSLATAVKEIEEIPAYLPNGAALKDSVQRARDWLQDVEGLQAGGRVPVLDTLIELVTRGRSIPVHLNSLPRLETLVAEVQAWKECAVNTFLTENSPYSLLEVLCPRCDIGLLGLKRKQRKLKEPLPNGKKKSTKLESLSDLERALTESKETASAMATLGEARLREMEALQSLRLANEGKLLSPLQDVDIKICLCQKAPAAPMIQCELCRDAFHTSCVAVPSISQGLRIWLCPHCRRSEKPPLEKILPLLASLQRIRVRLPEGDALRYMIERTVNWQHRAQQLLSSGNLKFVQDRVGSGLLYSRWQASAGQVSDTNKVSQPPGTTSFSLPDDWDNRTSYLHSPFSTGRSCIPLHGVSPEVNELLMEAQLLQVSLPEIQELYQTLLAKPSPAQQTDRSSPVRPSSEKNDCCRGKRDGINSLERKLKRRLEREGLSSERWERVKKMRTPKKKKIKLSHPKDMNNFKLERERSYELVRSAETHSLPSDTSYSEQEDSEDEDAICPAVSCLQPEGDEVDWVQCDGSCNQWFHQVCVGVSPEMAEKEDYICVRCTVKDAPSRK", "assay": "Primary screen for KDM5B Histone Demethylases FDH-coupled qHTS; further: nearly all actives have a fitted effect of over 70% in size; on activity change, negative = inhibition: 0% is about no effect", "details": "FDH-coupled NADH fluorescence (FDH is formaldehyde dehydrogenase); activity change, negative = inhibition: at 57.7 µM (top of the series) unless noted", "procedure,_shortened": "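KDM5BΔAP (200 nM final) in 50 mM HEPES pH 7.5, 0.01% Tween-20 was preincubated 10 min at RT with compound over a concentration range. Substrate mix (H3K4me3 12.5 µM, α-KG 25 µM, Fe²⁺, ascorbate, NAD⁺, FDH) was added, and NADH fluorescence change over 30 min gave dose-response curves.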"}
{"smiles": "CCOC(=O)CN1CCN(C(=O)CCc2cc3ccc(C)cc3[nH]c2=O)CC1", "Potency": "active: 25.1 µM"}
{"smiles": "CC(CCc1ccccc1)NC(=O)C1(C#N)CCCC1", "note": "(stereo not given)", "activity change, negative = inhibition": "inactive: 8.02%"}
{"smiles": "CC(=O)Nc1cccc(NC(=O)Cn2nc3c(cc2=O)CCCCC3)c1", "activity change, negative = inhibition": "inactive: 17.2%"}
{"smiles": "Cc1cccc(C(=O)N2C[C@@H](Oc3cccnc3)C[C@H]2C(=O)N2CCOCC2)c1", "activity change, negative = inhibition": "inactive: 26.7%"}
{"smiles": "CC(=O)N1CCC(N2CCC3(CC2)CN(C2CCC2)CC3CO)CC1", "note": "(stereo not given)", "Potency": "inconclusive: 15.8 µM [inhibitor, partial curve, poor fit]"}
{"smiles": "CCOc1cc(/C=C(\\C#N)c2nc3ccccc3[nH]2)ccc1OC(C)CC", "note": "(stereo not given)", "activity change, negative = inhibition": "inactive: 76.7%"}
{"smiles": "CC(Cc1cccnc1)Nc1ccc(-c2nccn2C)nn1", "note": "(stereo not given)", "Potency": "inconclusive: 39.8 µM [inhibitor, single point]"}
{"smiles": "COc1ccccc1C(=O)N1CCN(c2oc(-c3ccc(F)cc3)nc2C#N)CC1", "Potency": "inconclusive: 1.78 µM [inhibitor, full curve, poor fit]"}
{"smiles": "CNC(=O)c1ccccc1NCC(=O)Nc1sc2c(c1C(=O)OC)CCCCC2", "Potency": "inconclusive: 28.2 µM [inhibitor, single point]"}
{"smiles": "Cc1ccc(Sc2c(C)nn(-c3ccccc3)c2OC(=O)CC(C)C)cc1", "Potency": "inconclusive: 7.94 µM [inhibitor, partial curve, poor fit]"}
{"smiles": "CCc1ccc(NC(=O)N2CCc3[nH]c4ccc(F)cc4c3C2)cc1", "Potency": "inconclusive: 15.8 µM [inhibitor, partial curve, poor fit]"}
{"smiles": "CCCc1cc(=O)oc2cc(OCC(=O)NCc3ccc(S(N)(=O)=O)cc3)ccc12", "Potency": "inconclusive: 12.6 µM [inhibitor, partial curve, poor fit]"}
{"smiles": "O=C(NCCCc1ccccc1)c1ccc2c(c1)sc1nc(-c3ccc(F)cc3)cn12", "Potency": "inconclusive: 25.1 µM [inhibitor, partial curve, poor fit]"}
{"smiles": "Cc1cccc(C)c1OCC(=O)NNC(=S)NC(=O)C1CC1", "Potency": "inconclusive: 22.4 µM [inhibitor, partial curve, poor fit]"}
{"smiles": "Cc1cccc(C)c1NC(=O)c1cc2sccc2n1Cc1ccc(F)cc1", "Potency": "inconclusive: 28.2 µM [inhibitor, single point]"}
{"smiles": "COc1ccc(OC)c(CNc2ncc(-c3ccc(Cl)cc3)n2C)c1", "Potency": "inconclusive: 31.6 µM [inhibitor, single point]"}
{"smiles": "Cc1ccc(CNC(=O)c2cn(C)c3ccc(S(=O)(=O)N4CCC(C)CC4)cc3c2=O)cc1", "Potency": "inconclusive: 17.8 µM [inhibitor, partial curve, poor fit]"}
{"smiles": "Cc1cccc(C(=O)NC(Nc2ccc3ccccc3c2)C(Cl)(Cl)Cl)c1", "note": "(stereo not given)", "activity change, negative = inhibition": "inactive: -16.5%"}
{"smiles": "COc1ccc(C(=O)Nc2ccc3c(c2)CN(Cc2ccc(F)cc2)C(=O)C(C)O3)c(OC)c1", "note": "(stereo not given)", "Potency": "active: 31.6 µM"}
{"smiles": "Cc1ccc(C(=O)N2CCc3nc4cc(-c5ccccc5)[nH]n4c(=O)c3C2)cn1", "Potency": "inconclusive: 3.98 µM [inhibitor, partial curve, poor fit]"}
{"smiles": "CCN1CCC(CCNC(=O)C2CCCN(C(=O)c3ccccc3)CCC(=O)NCC2)CC1", "note": "(stereo not given)", "activity change, negative = inhibition": "inactive: -17.8%"}
{"smiles": "CC(=O)NCC(=O)N1CCC(Oc2ccccc2-c2nc(C3CC3)no2)C1", "note": "(stereo not given)", "Potency": "inconclusive: 35.5 µM [inhibitor, partial curve, poor fit]"}
{"smiles": "CC(C)c1noc([C@@H]2C[C@@H](O)CN2Cc2ccc(CO)o2)n1", "Potency": "inconclusive: 44.7 µM [inhibitor, single point]"}
{"smiles": "O=C(Cn1nnnc1-c1ccc(Br)cc1)N1CCOCC1", "Potency": "inconclusive: 39.8 µM [inhibitor, single point]"}
{"smiles": "O=C(Cn1cccc1-c1nc(-c2ccc3c(c2)OCO3)no1)Nc1ccc(Cl)cc1", "Potency": "inconclusive: 15.8 µM [inhibitor, partial curve, poor fit]"}
{"smiles": "Cc1ccccc1-c1cn[nH]c1C1CCN(C(=O)c2cnn3ccccc23)CC1", "Potency": "active: 22.4 µM"}
{"smiles": "O=C(Nc1ccc(NCc2ccccc2)c(Cl)c1)c1cc[n+]([O-])cc1", "activity change, negative = inhibition": "inactive: 13.9%"}
{"smiles": "CCCCN(CC)C(=O)Cn1cc2c(n1)-c1c(oc(C(=O)N3CCCC3)c1C)CC2", "Potency": "inconclusive: 2.82 µM [inhibitor, full curve, poor fit]"}
{"smiles": "COc1ccc(Cl)cc1NC(=O)Cn1c(N2CCC(C)CC2)nc(C)cc1=O", "Potency": "active: 28.2 µM"}
{"smiles": "Fc1ccc(-n2ncc3c(NCCCc4ccccc4)ncnc32)cc1", "Potency": "inconclusive: 35.5 µM [inhibitor, partial curve, poor fit]"}
{"smiles": "O=Cc1ccc(-c2ccc(O)cc2)cc1", "Potency": "active: 14.1 µM"}
{"smiles": "CCOC(=O)C(C)Oc1ccc2c(C)c(CCC(C)C)c(=O)oc2c1", "note": "(stereo not given)", "Potency": "inconclusive: 2 µM [inhibitor, full curve, poor fit]"}
{"smiles": "CCCCN(C)C(=O)Cn1ccn2nc(-c3ccccc3)c(CO)c2c1=O", "activity change, negative = inhibition": "inactive: -12.3%"}
{"smiles": "CC(=O)Nc1ccc(CN2CC[C@H](c3nnc(C(C)(C)C)o3)C2)cc1", "activity change, negative = inhibition": "inactive: -12.5% [at 86.2 µM]"}
{"smiles": "CCN1CCC2(Cc3ccccc3CN(C(=O)c3cccc(Cl)c3)C2)C1", "note": "(stereo not given)", "activity change, negative = inhibition": "inactive: -21.4% [at 115 µM]"}
{"smiles": "O=C(Nc1nc2cc3c(cc2s1)OCCCO3)c1cccc(Cl)c1Cl", "Potency": "inconclusive: 39.8 µM [inhibitor, single point]"}
{"smiles": "CC(C)(C)c1ccc(OC(=O)Nc2ccc(O)c(C(=O)O)c2)cc1", "Potency": "inconclusive: 15.8 µM [inhibitor, partial curve, poor fit]"}
{"smiles": "CC(C)N1C[C@H](O)C[C@H]1c1nnc2n1CCN(C(=O)c1cccn1C)C2", "Potency": "inconclusive: 35.5 µM [inhibitor, partial curve, poor fit]"}
{"smiles": "O=C(N[C@H]1CO[C@H]2[C@@H]1OC[C@@H]2Nc1nccc(-c2ccc(-c3ccccc3)cc2)n1)C1CCCCC1", "Potency": "inconclusive: 31.6 µM [inhibitor, single point]"}
{"smiles": "CCn1cc(-c2ccc(OC)cc2)cc1C(=O)O", "Potency": "inconclusive: 25.1 µM [inhibitor, single point]"}
{"smiles": "Cc1cccc(NC(=O)c2cc3c(C)nn(-c4ccccc4)c3s2)c1", "Potency": "inconclusive: 35.5 µM [inhibitor, partial curve, poor fit]"}
{"smiles": "COc1cc(Cl)c(C)cc1NC(=O)c1ccc(-n2cccn2)cc1", "Potency": "inconclusive: 8.91 µM [inhibitor, partial curve, poor fit]"}
{"smiles": "O=C1CCCN1CCCN1C(=O)[C@@H]2C[C@@H](O)CN2C2(CN(CC3CC3)C2)C1=O", "Potency": "inconclusive: 10 µM [inhibitor, partial curve, poor fit]"}
{"smiles": "COc1cccc(-c2nc(N3CCCCC3)ncc2C(=O)O)c1", "Potency": "inconclusive: 31.6 µM [inhibitor, partial curve, poor fit]"}
{"smiles": "O=C(N[C@@H]1CCNC[C@H]1O)c1cccc(-c2ccc(OC(F)(F)F)cc2)c1", "activity change, negative = inhibition": "inactive: 24.1%"}
{"smiles": "COc1ccc(C(=O)C(C)[n+]2ccc(-c3nnc4n3CCCCC4)cc2)cc1", "note": "(stereo not given)", "Potency": "inconclusive: 25.1 µM [inhibitor, single point]"}
{"smiles": "CCOc1ccc(C(=O)N[C@@H]2CN(C)C[C@H]2CN(C)C)cc1OCC", "Potency": "inconclusive: 20 µM [inhibitor, partial curve, poor fit]"}
{"smiles": "Cc1cccc(CC(=O)Nc2cccc(-c3cn4cccnc4n3)c2)c1", "Potency": "inconclusive: 25.1 µM [inhibitor, partial curve, poor fit]"}
{"smiles": "S=C(Nc1ccccc1)Nc1ccccc1-n1cccc1", "Potency": "inconclusive: 28.2 µM [inhibitor, partial curve, poor fit]"}
{"smiles": "CC(C)CNC(=O)COc1ccc2c(C(C)C)cc(=O)oc2c1", "Potency": "inconclusive: 25.1 µM [inhibitor, partial curve, poor fit]"}
{"smiles": "CC(C)NC(=O)C1CC1", "activity change, negative = inhibition": "inactive: 7.81%"}
{"smiles": "COC(=O)c1cc(NC(=O)CCc2c(C)nc3nc(C)nn3c2C)cc(C(=O)OC)c1", "Potency": "inconclusive: 28.2 µM [inhibitor, partial curve, poor fit]"}
{"smiles": "Cc1nc(-c2cccc(F)c2)sc1CCNC(=O)CC(C)(C)C", "Potency": "inconclusive: 28.2 µM [inhibitor, single point]"}
{"smiles": "COc1ccc(-n2nc3ccc(NC(=O)c4ccccc4Br)cc3n2)cc1", "Potency": "inconclusive: 22.4 µM [inhibitor, partial curve, poor fit]"}
{"smiles": "CSCc1c(C(=O)OC2CCOC2=O)oc2ccccc12", "note": "(stereo not given)", "activity change, negative = inhibition": "inactive: 11.2%"}
{"smiles": "COc1cccc(N2CCN(C(=O)c3ccc(N4CC5CC(C4)[C@H]4CCCC(=O)N4C5)nc3)CC2)c1", "note": "(stereo not given in full)", "Potency": "inconclusive: 22.4 µM [inhibitor, partial curve, poor fit]"}
{"smiles": "Cc1ccc(N2Cc3c(NCCO)ncnc3N(C)CC2=O)cc1", "Potency": "inconclusive: 35.5 µM [inhibitor, single point]"}
{"smiles": "COCCNC(=O)c1cc(-c2ccc(C)cc2)nc2ccccc12", "Potency": "inconclusive: 17.8 µM [inhibitor, partial curve, poor fit]"}
{"smiles": "COc1ccc2cc(CNC(=O)CNC(=O)c3ccc(C)c(C)c3)ccc2c1", "Potency": "inconclusive: 22.4 µM [inhibitor, single point]"}
{"smiles": "CCOC(=O)c1ccc(NC(=O)CCn2nc(C)c(S(=O)(=O)N3CCCCC3)c2C)cc1", "activity change, negative = inhibition": "inactive: 11.9%"}
{"smiles": "O=C(/C=C/c1cccc(Cl)c1Cl)c1ccc(OC(F)F)cc1OC(F)F", "Potency": "inconclusive: 39.8 µM [inhibitor, single point]"}
{"smiles": "CN(C)C(=O)CNC(=O)c1nn(C)c(=O)c2ccccc12", "activity change, negative = inhibition": "inactive: 19.2%"}
{"smiles": "Cc1ccc(-c2nc3ccccn3c2Nc2c(C)cccc2C)o1", "Potency": "inconclusive: 28.2 µM [inhibitor, partial curve, poor fit]"}
{"smiles": "CC1CCc2c(sc3nnn(Cc4ccccc4)c(=O)c23)C1", "note": "(stereo not given)", "Potency": "inconclusive: 17.8 µM [inhibitor, single point]"}
{"smiles": "CN(C)S(=O)(=O)c1cccc(C(=O)/C=C/c2cc(-c3cccs3)cs2)c1", "activity change, negative = inhibition": "inactive: -14.6%"}
